Results: PubChem BioAssay AID1508642 (National Center for Advancing Translational Sciences (NCATS), 2021)
In all, about 43,000 compounds went through this assay and about 200 (0.47%) were called active. About 12% were inconclusive and are not listed. Calls come from the whole dose curve; as a rule, active = well fitted cell-killing curve with a large enough effect; inconclusive = small, poorly fitted or top-dose-only effect, or effect the other way; inactive = flat fitted curve, though single readings scatter. This is one part of the list.

Experiment: Cell viability qHTS assay in S16 Pmp22-F2sN cells; note: nearly all actives have a fitted effect of over 65% in size
Settings: S16 Pmp22-F2sN Schwann cells (luciferase reporters placed in the Pmp22 gene) viability, CellTiter-Glo, 24 h; series mostly up to 57.5 µM; activity change, negative = cytotoxicity: at the top concentration
Procedure, shortened: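 Seed 500-1,000 S16 Pmp22-F2sN cells per well in phenol-red-free DMEM with 10% heat-inactivated FBS; pin-add 23 nL compound; incubate 24 h at 37C; add CellTiter-Glo, wait 15 min protected from light; read luminescence.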
% is set by controls: 0 for no effect and ±100 for the full control effect.

Row | Compound | activity change, negative = cytotoxicity
1 | COc1ccccc1C1Nc2c(sc3nc(C)cc(C)c23)C(=O)N1c1ccccc1 (stereo not given) | inactive: -4.59%
2 | CCc1ccccc1Nc1nn2c(=O)c3ccc(C(=O)NC(C)c4ccccc4)cc3nc2s1 (stereo not given) | inactive: -26.1%
3 | COc1cc2[nH]c(=O)n(CCCC(=O)NCc3ccc(Cl)cc3)c(=O)c2cc1OC | inactive: -5.71%
4 | Cc1ccc(NC(=O)C(=O)NCC(c2cccnc2)N2CCN(c3ccccc3F)CC2)cc1Cl (stereo not given) | inactive: -32.6%
5 | COc1ccccc1NC(=O)c1sc2nc(C)c(C(=O)Nc3ccc(C)cc3C)c(-c3cccs3)c2c1N | inactive: 4.72%
6 | CCOC(=O)c1c(C)[nH]c(CCC(=O)NCc2ccc(F)cc2)c1C | inactive: 9.53%
7 | CC(C)(C)C1CCc2c(sc3nc(-c4cc5cc(Br)ccc5oc4=O)[nH]c(=O)c23)C1 (stereo not given) | inactive: 9.2%
8 | CC(=O)Nc1ccc(NC(=O)c2cc3sccc3n2Cc2ccc(F)cc2)cc1 | inactive: 13.5%
9 | CCOc1cc2[nH]c(=O)n(CCCCC(=O)N3CCN(c4cccc(Cl)c4)CC3)c(=O)c2cc1OCC | inactive: -19.4%
10 | CCc1ccc(CN2CCc3nc(Nc4ccccc4)ncc3C2)cc1 | inactive: -17.2%
11 | COC(=O)c1ccc(NC(=O)CN2C(=O)CCc3cc(S(=O)(=O)N4CCCCC4)ccc32)cc1 | inactive: 0.813%
12 | N#Cc1ccccc1Cn1c(=O)n(-c2cccc(C(F)(F)F)c2)c(=O)c2sccc21 | inactive: 18.3%
13 | COc1ccc(S(=O)(=O)NCC(c2ccco2)N2CCN(c3ccccc3)CC2)cc1OC (stereo not given) | inactive: 3.06%
14 | Cc1[nH]c(=O)[nH]c(=O)c1S(=O)(=O)N1CCN(c2ccccc2Cl)CC1 | inactive: 3.85%
15 | O=C(O)CCn1c(=O)c2cccn2c2cccnc21 | inactive: 6.67%
16 | O=C(NC1CCCCC1)c1ccc(CSc2nc3cccnc3n2Cc2ccc(F)cc2)cc1 | inactive: -0.167%
17 | CCOC(=O)c1c(S(=O)(=O)N2CCCC(C(=O)Nc3cc(C)ccn3)C2)c(C)n(C)c1C (stereo not given) | inactive: 5.69%
18 | COc1ccc(OC)c(NC(=O)C2CCN(S(=O)(=O)c3ccc4c(c3)CCCC(=O)N4)CC2)c1 | inactive: 22.9%
19 | CCOC(=O)c1ccc(NC(=O)CCC(=O)N2Cc3ccccc3Oc3ncccc32)cc1 | inactive: -4.56%
20 | Cc1cc(C)nc(NC(=NCCc2c[nH]c3ccc(Cl)cc23)NC(=O)c2ccccc2C)n1 | inactive: 8.81%
21 | COC(=O)C1=C(C)NC(=O)C1(NC(=O)c1cc(OC)c(OC)c(OC)c1)C(F)(F)F (stereo not given) | inactive: 12.1%
22 | Cc1cccc(-n2cc(-c3ccccc3)c3c(NC4CCCC4)ncnc32)c1 | inactive: -7.6%
23 | COCCNc1ccc(-c2nc(-c3ccco3)no2)cc1[N+](=O)[O-] | inactive: 16.7%
24 | O=C(CN1C(=O)COc2ccc(S(=O)(=O)N3CCCC3)cc21)N1CCN(c2ccc(F)cc2)CC1 | inactive: -0.752%
25 | Cc1cccc(-n2c(Cc3ccccc3)nnc2SCc2nc(-c3cccs3)no2)c1 | inactive: -22.9%
